# From PubChem BioAssay AID1347120 (National Center for Advancing Translational Sciences (NCATS), 2019)
# The campaign covered roughly 390,000 compounds. About 930 (0.24%) were called active. Inconclusive means that the source gave no clear call. Such entries were picked first, then a sample of the others. The call rests on the fitted dose curve; in most records, active means well fitted activation curve with a large enough effect; inconclusive means small, poorly fitted or top-dose-only effect; inactive means no such curve, though single readings can be large or run the other way. Potencies beside an inconclusive call are fits to weak or partial responses and may not hold up.
# Assay: qHTS for Suppressors of FUS Proteinopathy: Primary screen using FUS-linked yeast assay; further: nearly all actives have a fitted effect of over 55% in size
# Details: S. cerevisiae FUS-expressing, OD600, 24 h; Potency: growth rescue; series mostly up to 76.6 µM
# Method in brief: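 Cultures pregrown in 2.5% raffinose medium are shifted to minimal medium containing 2% galactose to express toxic FUS. Compounds are tested at several concentrations. After 24hr at 30C, growth is quantified at 600 nm absorbance.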
# Potency means the concentration at half of the fitted maximal effect; tags describe the fitted curve by direction and shape.
row,SMILES,Potency
1,Cc1ccc(N2C(=O)C3ON(c4ccccc4)C(c4ccncc4)C3C2=O)cc1 (centres undefined),"inconclusive: 39.8 µM [activator, single point]"
2,Cc1ccc(NC(=O)CN(C)S(=O)(=O)c2ccc3nc(C)sc3c2)c(C)c1,inactive
3,CCOC(=O)N1CCC(Nc2cccc(SC)c2)CC1,"inconclusive: 28.2 µM [activator, single point]"
4,COc1ccc2cc(-c3csc(-c4cccnc4)n3)ccc2c1,inactive
5,Cc1cc(C)nc(NC(=O)/C=C/c2ccccc2Cl)n1,inactive
6,O=C(C[C@H]1C/C=C\CC[C@H](Cc2ccc(F)cc2)C(=O)O[C@H](c2ccccc2)CNC1=O)N[C@H](CO)Cc1ccccc1,"inconclusive: 17.8 µM [activator, partial curve, poor fit]"
7,C[C@@H]1CN([C@H](C)CO)C(=O)c2cc(NC(=O)Nc3ccc(C(F)(F)F)cc3)ccc2O[C@H]1CN(C)C(=O)Nc1ccc(F)cc1,active: 28.2 µM
8,COc1cc(NC(=O)CSc2nc3nc(C)c(Cc4ccc(C)cc4)c(C)n3n2)cc(OC)c1,active: 31.6 µM
9,CC(C)[C@H](NC(=O)[C@H](Cc1ccccc1)NC(=O)OC(C)(C)C)C(=O)N1CCC2CCN(S(=O)(=O)c3ccccc3)CC21 (some centres undefined),"inconclusive: 25.1 µM [activator, partial curve, poor fit]"
10,CC(C)COC(=O)c1cccc2c1-c1ccccc1/C2=N\O,inactive
11,CCC(C)Nc1c2c(nc3c(-c4ccccc4)c(C)nn13)CCC2 (centres undefined),inactive
12,O=C(NC1(Cc2ccccc2)CCN(Cc2ccc(-c3ccccc3)cc2)C1=O)c1ccccc1 (centres undefined),"inconclusive: 35.5 µM [activator, single point]"
13,CCOC(=O)N/N=C/c1cc(C)n(-c2ccccc2)c1C,"inconclusive: 50.1 µM [activator, single point]"
14,COc1ccc(-c2c([C@H]3[C@@H]4C=CCC[C@@]4(C)C(=O)N3Cc3ccccc3)ccc3ccccc23)cc1OC,"inconclusive: 50.1 µM [activator, single point]"
15,COCC(=O)N1CCC(C(=O)NC2CCCc3ccccc32)CC1 (centres undefined),inactive
16,COc1ccc(NC(=O)c2ccc3c(c2)CCN3S(=O)(=O)c2ccc(C)cc2)cc1Cl,"inconclusive: 39.8 µM [activator, partial curve, poor fit]"
17,CN(C)S(=O)(=O)c1ccc(NC(=O)CSc2nc3ccccc3n2-c2ccccc2)cc1,active: 6.31 µM
18,O=C(CSc1nc2ccccc2nc1Cc1ccccc1)Nc1ccc2c(c1)OCO2,"inconclusive: 44.7 µM [activator, single point]"
19,Cc1cc(C)c2c(=O)n3c(nc2c1)C(Cc1ccc(O)cc1)NC(=O)c1cccnc1-3 (centres undefined),"inconclusive: 50.1 µM [activator, single point]"
20,Cc1ccc(N(C)C(=O)C2CCN(S(=O)(=O)c3ccc4c(c3)CCCN4C(=O)C3CCC3)CC2)cc1,"inconclusive: 31.6 µM [activator, single point]"

row,SMILES,Potency
1,CCCCn1nnnc1C(c1ccccc1)N1CCN(c2c(Cl)cncc2Cl)CC1 (centres undefined),inactive
2,Cc1nc2c(OCCC3CCCCC3)cccn2c1N(C)C(=O)CCC1CCCC1,inactive
3,COc1cc(C(c2c(C(=O)O)[nH]c3ccccc23)c2c(C(=O)O)[nH]c3ccccc23)ccc1OCc1ccccc1,"inconclusive: 50.1 µM [activator, single point]"
4,Cn1ccc2c(-c3ccc4c(c3)OCCO4)cc3c(c21)C1CCC3O1 (centres undefined),"inconclusive: 50.1 µM [activator, single point]"
5,COC(=O)[C@]12C[C@H](CC(=O)NCCc3ccccc3OC)C(=O)N(Cc3ccco3)C1=C[C@H](C(C)C)O[C@@H]2C1CC1,inactive
6,CCOC(=O)N1CCc2c(sc3c2c(=O)n(CCc2ccccc2)c(=O)n3Cc2ccc(F)cc2)C1,inactive
7,COc1ccc(C(=O)CN2C(=O)N(c3ccc(C(C)=O)cc3)S(=O)(=O)c3ccccc32)cc1,"inconclusive: 31.6 µM [activator, partial curve, poor fit]"
8,CC1(C(=O)Nc2cccc(Oc3ccccc3)c2)CCN1Cc1cccc2c1OCO2 (centres undefined),"inconclusive: 50.1 µM [activator, partial curve, poor fit]"
9,CCc1ccc(-c2csc(NC(=O)C3CCCO3)c2C(=O)OC(C)C)cc1 (centres undefined),"inconclusive: 56.2 µM [activator, partial curve, poor fit]"
10,O=C(NNC(=O)c1cc(-c2ccccc2)nc2ccccc12)c1csc(N2CCOCC2)n1,"inconclusive: 20 µM [activator, partial curve, poor fit]"
11,CC(C)Sc1nnc(CNC(=O)C23CC4CC(CC(C4)C2)C3)n1Cc1ccccc1,"inconclusive: 22.4 µM [activator, partial curve, poor fit]"
12,CC(Oc1ccc(Cl)cc1)C(=O)OCC(=O)Nc1ncc(Cl)cc1Cl (centres undefined),"inconclusive: 11.2 µM [activator, single point]"
13,Cc1ccc(S(=O)(=O)N(C)C[C@@H]2Oc3ncc(Br)cc3C(=O)N([C@H](C)CO)C[C@@H]2C)cc1,inactive
14,COc1cccc(N2CCN(C(=O)c3ccc(-c4ccccc4)cc3)CC2)c1,"inconclusive: 15.8 µM [activator, partial curve, poor fit]"
15,COc1cc(-c2coc3c(C(=O)NCc4ccccc4)cccc23)ccc1O,"inconclusive: 44.7 µM [activator, single point]"
16,O=C(NCc1ccco1)c1cc([N+](=O)[O-])ccc1N1CCCCC1,inactive
17,CCOC(=O)c1cccc(NC(=O)C2CCN(S(=O)(=O)c3ccc4c(c3)oc(=O)n4C)CC2)c1,"inconclusive: 50.1 µM [activator, single point]"
18,COc1cccc(C(=O)N(Cc2cc3cc(C)ccc3[nH]c2=O)CC2CCCO2)c1 (centres undefined),inactive
19,Cn1c(=O)c2c(ncn2CC(O)CNc2ccc(Cl)cc2)n(C)c1=O (centres undefined),inactive
20,CC(C)=CCC12Oc3cc(O)ccc3C1(O)Oc1cc(O)c([C@H]3C=C(C)CC(c4ccc(O)cc4O)[C@H]3C(=O)c3ccc(O)cc3O)c(O)c1C2=O (some centres undefined),"inconclusive: 31.6 µM [activator, single point]"

row,SMILES,Potency
1,O=C(CSCC(=O)N1CCCc2ccccc21)Nc1nc(-c2ccccc2)cs1,"inconclusive: 12.6 µM [activator, partial curve]"
2,CCc1ccc(C(=O)COC(=O)C(Cc2c[nH]c3ccccc23)NC(=O)c2ccc(Br)cc2)cc1 (centres undefined),"inconclusive: 31.6 µM [activator, single point]"
3,COc1ccc(OC)c(C(=O)NC2CC(C)(C)Cc3c2cnn3-c2ccccc2)c1 (centres undefined),"inconclusive: 25.1 µM [activator, partial curve, poor fit]"
4,CCOc1ccc(C2c3cc(OCC)c(OCC)cc3CC(=O)N2c2ccc(C(=O)O)cc2)cc1OCC (centres undefined),"inconclusive: 50.1 µM [activator, partial curve, poor fit]"
5,CC(C)(C)c1ccc(OCc2ccc(C(=O)N3CCOCC3)o2)cc1,"inconclusive: 39.8 µM [activator, partial curve, poor fit]"
6,CCN(CC)c1cc2c(cc1F)c(=O)c(S(=O)(=O)c1cc(C)ccc1C)cn2Cc1ccccc1,inactive
7,C[C@H](CO)N1C[C@H](C)[C@@H](CN(C)S(=O)(=O)c2ccccc2)Oc2c(NS(=O)(=O)c3ccc(F)cc3)cccc2C1=O,"inconclusive: 17.8 µM [activator, single point]"
8,Cc1c(C(=O)NCc2ccc3c(c2)OCO3)sc(=O)n1Cc1ccc(-c2ccccc2)cc1,"inconclusive: 14.1 µM [activator, partial curve, poor fit]"
9,CC1=NN(c2ccc(F)cc2)C(=O)C1C(c1cccc(O)c1)c1c(C)[nH]n(-c2ccc(F)cc2)c1=O (centres undefined),"inconclusive: 44.7 µM [activator, partial curve, poor fit]"
10,CCOc1ccc(C2=NC(c3cccs3)=Nc3ccc(C(C)C)cc3N2)cc1,"inconclusive: 35.5 µM [activator, single point]"
11,O=C(Cc1ccccc1)Nc1ccccc1N1CCN(c2ccccc2)CC1,"inconclusive: 5.62 µM [activator, full curve, poor fit]"
12,COc1ccc(-c2nc3sc(CCNC(=O)c4cc(Cl)ccc4OC)c(C)n3n2)cc1,"inconclusive: 31.6 µM [activator, single point]"
13,Cc1oc2c(cc(NS(=O)(=O)c3ccc4c5c(cccc35)C(=O)N4)c3ccccc32)c1C(=O)OC(C)C,"inconclusive: 25.1 µM [activator, single point]"
14,O=C(NC1CC1)c1cccc2c1C(=O)c1ccc(N3CCC(Cc4ccccc4)CC3)cc1S2(=O)=O,"inconclusive: 3.98 µM [activator, full curve]"
15,CC(O)(c1ccc(F)c(F)c1)c1nc(-c2cnc3ccccc3c2)cs1 (centres undefined),"inconclusive: 31.6 µM [activator, single point]"
16,COc1ccc(C2NC(=O)CS2)cc1 (centres undefined),"inconclusive: 1 µM [activator, full curve, poor fit]"
17,N/C(=N\S(=O)(=O)c1cc(C(F)(F)F)cc(C(F)(F)F)c1)c1ccc(Cl)cc1,"inconclusive: 31.6 µM [activator, single point]"
18,Cc1nn(C)c(C(=O)N/N=C/c2cccc(Oc3ccccc3)c2)c1Br,inactive
19,C[C@@H]1[C@@H](c2ccccc2)c2cc3ccccc3nc2-c2nc3ccccc3cc2[C@@H]1C(=O)N1CCCC1,"inconclusive: 17.8 µM [activator, partial curve, poor fit]"
